# In paper PMC12820563:
# Some of the results follow. The list includes weakly bound sequences.
# Biological target: T1, MBP-FoxP3dN (UniProt Q99JB6)
# T1 sequence: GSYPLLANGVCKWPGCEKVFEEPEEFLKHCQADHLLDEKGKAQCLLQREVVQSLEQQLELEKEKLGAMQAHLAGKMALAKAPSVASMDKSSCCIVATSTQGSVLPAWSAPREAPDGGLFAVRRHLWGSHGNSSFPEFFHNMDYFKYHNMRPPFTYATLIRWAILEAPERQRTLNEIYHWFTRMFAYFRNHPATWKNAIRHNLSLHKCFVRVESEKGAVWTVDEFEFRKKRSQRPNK
# Test: PD-seq (MBP pull-down with sequencing)
# Conditions: 20 mM Tris-HCl pH 7.5, 100 mM NaCl, 1.5 mM MgCl2, 0.4 uM protein, 0.1 uM dsDNA library, 30 min, room temperature, amylose pull-down; high values mean tight binding; double strand, one strand shown
row,Sequence,binding signal (RPM ratio (pull-down/input))
1,GATGATTGTTCTCCCAGCTGATGAATTAGCCATTTCGAGTAAACAAATTTTCCTAATCTTTCTGTTCAAGCGCCATCTAC,1.23
2,GATGATTGTTCTCCCAGCTGATGAATTCCTCCGTTCGAGTAAACAAATTTTCCTAATCTTTCTGTTCAAGCGCCATCTAC,0.255
3,GATGATTGTTCTCCCAGCTGATGAATTGATACCTTCGAGTAAACAAATTTTCCTAATCTTTCTGTTCAAGCGCCATCTAC,0.687
4,GATGATTGTTCTCCCAGCTGATGAATTTTGATAATCGAGTAAACAAATTTTCCTAATCTTTCTGTTCAAGCGCCATCTAC,0.576
5,GATGATTGTTCTCCCAGCTGATGAATTAGTATAGTCGAGTAAACAAATTTTCCTAATCTTTCTGTTCAAGCGCCATCTAC,2.11
6,GATGATTGTTCTCCCAGCTGATGAATTCGTTGGGTCGAGTAAACAAATTTTCCTAATCTTTCTGTTCAAGCGCCATCTAC,2.87
7,GATGATTGTTCTCCCAGCTGATGAATTCCAGCACTCGAGTAAACAAATTTTCCTAATCTTTCTGTTCAAGCGCCATCTAC,0.373
8,GATGATTGTTCTCCCAGCTGATGAATTTTAGTCATCGAGTAAACAAATTTTCCTAATCTTTCTGTTCAAGCGCCATCTAC,0.541
9,GATGATTGTTCTCCCAGCTGATGAATTCCTAGAATCGAGTAAACAAATTTTCCTAATCTTTCTGTTCAAGCGCCATCTAC,0.178
10,GATGATTGTTCTCCCAGCTGATGAATTCCGAGACTCGAGTAAACAAATTTTCCTAATCTTTCTGTTCAAGCGCCATCTAC,0.45
11,GATGATTGTTCTCCCAGCTGATGAATTAAAGCGGTCGAGTAAACAAATTTTCCTAATCTTTCTGTTCAAGCGCCATCTAC,0.409
12,GATGATTGTTCTCCCAGCTGATGAATTAGTGATATCGAGTAAACAAATTTTCCTAATCTTTCTGTTCAAGCGCCATCTAC,0.813
13,GATGATTGTTCTCCCAGCTGATGAATTGTTACCATCGAGTAAACAAATTTTCCTAATCTTTCTGTTCAAGCGCCATCTAC,1.1
14,GATGATTGTTCTCCCAGCTGATGAATTGGTCCCGTCGAGTAAACAAATTTTCCTAATCTTTCTGTTCAAGCGCCATCTAC,0.305
15,GATGATTGTTCTCCCAGCTGATGAATTACACTGGTCGAGTAAACAAATTTTCCTAATCTTTCTGTTCAAGCGCCATCTAC,0.443
16,GATGATTGTTCTCCCAGCTGATGAATTGCTCACCTCGAGTAAACAAATTTTCCTAATCTTTCTGTTCAAGCGCCATCTAC,0.467

row,Sequence,binding signal (RPM ratio (pull-down/input))
1,GATGATTGTTCTCCCAGCTGATGAATTCCCGTTTTCGAGTAAACAAATTTTCCTAATCTTTCTGTTCAAGCGCCATCTAC,0.451
2,GATGATTGTTCTCCCAGCTGATGAATTATCACATTCGAGTAAACAAATTTTCCTAATCTTTCTGTTCAAGCGCCATCTAC,0.517
3,GATGATTGTTCTCCCAGCTGATGAATTCAGACAGTCGAGTAAACAAATTTTCCTAATCTTTCTGTTCAAGCGCCATCTAC,0.297
4,GATGATTGTTCTCCCAGCTGATGAATTGACGCAGTCGAGTAAACAAATTTTCCTAATCTTTCTGTTCAAGCGCCATCTAC,0.764
5,GATGATTGTTCTCCCAGCTGATGAATTCCACTCCTCGAGTAAACAAATTTTCCTAATCTTTCTGTTCAAGCGCCATCTAC,0.422
6,GATGATTGTTCTCCCAGCTGATGAATTAAATTTATCGAGTAAACAAATTTTCCTAATCTTTCTGTTCAAGCGCCATCTAC,1.46
7,GATGATTGTTCTCCCAGCTGATGAATTGTCCCCCTCGAGTAAACAAATTTTCCTAATCTTTCTGTTCAAGCGCCATCTAC,0.357
8,GATGATTGTTCTCCCAGCTGATGAATTCGAAAACTCGAGTAAACAAATTTTCCTAATCTTTCTGTTCAAGCGCCATCTAC,0.246
9,GATGATTGTTCTCCCAGCTGATGAATTAGATCTATCGAGTAAACAAATTTTCCTAATCTTTCTGTTCAAGCGCCATCTAC,0.433
10,GATGATTGTTCTCCCAGCTGATGAATTTCGCAAATCGAGTAAACAAATTTTCCTAATCTTTCTGTTCAAGCGCCATCTAC,0.634
11,GATGATTGTTCTCCCAGCTGATGAATTACCCGAATCGAGTAAACAAATTTTCCTAATCTTTCTGTTCAAGCGCCATCTAC,0.184
12,GATGATTGTTCTCCCAGCTGATGAATTAATCTTGTCGAGTAAACAAATTTTCCTAATCTTTCTGTTCAAGCGCCATCTAC,0.322
13,GATGATTGTTCTCCCAGCTGATGAATTCCGTGGGTCGAGTAAACAAATTTTCCTAATCTTTCTGTTCAAGCGCCATCTAC,0.539
14,GATGATTGTTCTCCCAGCTGATGAATTCCATTACTCGAGTAAACAAATTTTCCTAATCTTTCTGTTCAAGCGCCATCTAC,0.607
15,GATGATTGTTCTCCCAGCTGATGAATTACGAACGTCGAGTAAACAAATTTTCCTAATCTTTCTGTTCAAGCGCCATCTAC,0.383
